{"source": "ChEMBL document CHEMBL4888484", "about": "“Replenishing the malaria drug discovery pipeline: Screening and hit evaluation of the MMV Hit Generation Library 1 (HGL1) against asexual blood stage Plasmodium falciparum ,using a nano luciferase reporter read-out” (2022)", "note": "Out of some 150,000 compounds screened, about 540 (0.36%) showed an effect of 50% or more. Some of the results follow.", "data": [{"system": "Plasmodium falciparum", "assay": "Primary screen in NF54 nanoGlo assay, in single point, at 2uM, 72h; a lower Z score goes with more inhibition", "format": "functional, Erythrocyte", "details": "timepoint 72 hour", "units": {"% Inhibition": "%"}, "values": [{"molecule": "O=C(NC(c1ccc(F)cc1)[C@H]1C[C@@H](O)C1)c1ccco1", "note": "(stereo partly specified)", "% Inhibition": -4, "Z score": 0.72}, {"molecule": "O=C(Nc1ccccc1)N1CC[C@H](Cc2nnc(-c3cccnc3)[nH]2)C1", "% Inhibition": 4, "Z score": -0.67}, {"molecule": "CCn1ccnc1[C@H]1OCCC[C@@H]1NC(=O)C1Cc2ccccc2O1", "note": "(stereo partly specified)", "% Inhibition": 2, "Z score": -0.27}, {"molecule": "Cc1ccccc1C1CN(C(=O)CC2(N)CCC2)C(C)CO1", "note": "(stereo unspecified)", "% Inhibition": -3, "Z score": 0.38}, {"molecule": "Cc1ncc(-c2ccccc2)cc1NC(=O)c1ccc(O)nc1", "% Inhibition": -4, "Z score": 0.62}, {"molecule": "CNC(=O)c1ccc(CN(C)[C@H]2CCN(CC(F)(F)F)C2=O)o1", "% Inhibition": -3, "Z score": 0.52}, {"molecule": "CCOc1ccc(NC(=O)C2CCN(c3cc(=O)n(C)c(=O)n3C)CC2)cc1", "% Inhibition": -4, "Z score": 0.69}, {"molecule": "O=C(c1cnc2[nH]c(=O)[nH]c2c1)N1C2CCC1CC(Cc1ccccc1)C2", "note": "(stereo unspecified)", "% Inhibition": 6, "Z score": -0.77}, {"molecule": "CC(CN1CCCCC1)NC(=O)NC1CCOC2(CCCC2)C1", "note": "(stereo unspecified)", "% Inhibition": -8, "Z score": 0.95}, {"molecule": "CC(NC(c1cccc(C(F)(F)F)c1)C1CC1)c1nnnn1C", "note": "(stereo unspecified)", "% Inhibition": -11, "Z score": 1.04}, {"molecule": "CN(C)CCN(C[C@H]1CCCO1)C(=O)c1ccc2cc[nH]c2c1", "% Inhibition": -8, "Z score": 1.21}, {"molecule": "CNC(=O)COc1cccc(S(C)(=O)=O)c1", "% Inhibition": 5, "Z score": -0.68}, {"molecule": "CC1(C)c2ccccc2N2CC(=O)N[C@@]21/C=C/c1ccc(Cl)cc1Cl", "% Inhibition": -13, "Z score": 1.67}, {"molecule": "COc1ccc(CNC2CC(C)(C)OCC2Cc2ccccc2)cc1", "note": "(stereo unspecified)", "% Inhibition": -8, "Z score": 1.01}, {"molecule": "COc1cccc(NC(=O)Cn2c(C(C)C)nc3c(c2=O)CN(Cc2ccccc2)CC3)c1", "% Inhibition": -3, "Z score": 0.38}, {"molecule": "CCOC1CC(O)C12CCN(C(=O)[C@@H](O)Cc1ccccc1)CC2", "note": "(stereo partly specified)", "% Inhibition": -1, "Z score": 0.12}, {"molecule": "O=C(C[C@@H]1O[C@H](CNC(=O)NC2CCCCC2)[C@@H](O)[C@H]1O)NCc1cccnc1", "% Inhibition": 25, "Z score": -2.8}, {"molecule": "CCC(NC1CCCc2c1cnn2CC)C(=O)Nc1cc(C)on1", "note": "(stereo unspecified)", "% Inhibition": -10, "Z score": 1.11}, {"molecule": "CCOc1cc(C(=O)N2CCC[C@H](c3n[nH]cc3NS(C)(=O)=O)C2)ccc1C", "% Inhibition": -16, "Z score": 1.77}, {"molecule": "O=C(Nc1ccc2cccc(Cl)c2n1)c1n[nH]c2ccccc12", "% Inhibition": 16, "Z score": -1.9}, {"molecule": "CC(C)C1(C(=O)N2CC[C@@H](F)C2)COC1", "% Inhibition": -7, "Z score": 0.68}, {"molecule": "O=C(c1cn[nH]c1)N1CCO[C@@H](CC(c2ccccc2)c2ccccc2)C1", "% Inhibition": -13, "Z score": 1.99}, {"molecule": "CC(C)c1nccc(C(=O)N[C@H]2C[C@H]3C(=O)N(C)CC(=O)N3C2)n1", "% Inhibition": 15, "Z score": -1.85}, {"molecule": "COc1ccccc1C1(CNS(=O)(=O)c2cnn(C)c2)CCOCC1", "% Inhibition": -6, "Z score": 1.17}, {"molecule": "O=C(NCCCN1Cc2ccccc2C1)c1cnc(-c2cccnc2)nc1", "% Inhibition": -13, "Z score": 2.08}, {"molecule": "Cc1ccc(C)c(CN(CCc2c[nH]c3ccccc23)Cc2nc(C(=O)NCc3ccco3)co2)c1", "% Inhibition": 0, "Z score": 0}, {"molecule": "CN(CCCO)CC(F)(F)c1ccc(F)cc1", "% Inhibition": -5, "Z score": 0.73}, {"molecule": "Cc1cccc(NC(=O)Nc2ccc(N3CCN(C(=O)C4c5ccccc5Oc5ccccc54)CC3)cc2)c1", "% Inhibition": 3, "Z score": -0.39}, {"molecule": "O=C(CCC1CCCC1)Nc1nnc([C@H]2CC(=O)N(c3ccc(F)cc3)C2)o1", "% Inhibition": -2, "Z score": 0.3}, {"molecule": "COc1ccc(CCNc2nc(-c3ccc(OC)cc3)c3c(N)n(-c4ccc(OC)cc4)nc3n2)cc1", "% Inhibition": -13, "Z score": 2.28}, {"molecule": "CC(C)c1nccn1C[C@@H](C#N)CCC#N", "% Inhibition": -14, "Z score": 2.72}, {"molecule": "Cc1ccc2[nH]c(N3CCC(C(=O)NC4CCCCCCC4)CC3)nc2c1", "% Inhibition": 3, "Z score": -0.41}, {"molecule": "CC(C)C(=O)Nc1cnn([C@H]2CCOC2)c1", "% Inhibition": 10, "Z score": -1.24}, {"molecule": "CCc1cc2c3c([nH]c2cc1S(=O)(=O)N(CC)c1ccc(OC)cc1)CCCC3=O", "% Inhibition": -20, "Z score": 3.84}, {"molecule": "CCN[C@H](c1cccnc1)c1ccc(Cl)s1", "% Inhibition": 4, "Z score": -0.81}, {"molecule": "Cc1cc(C(=O)N2CCC(c3nc4ccccc4o3)CC2)cs1", "% Inhibition": -7, "Z score": 1.17}, {"molecule": "CCOc1ccccc1NC(=O)Cn1ncc(-c2ccc(OC)cc2)nc1=O", "% Inhibition": 2, "Z score": -0.24}, {"molecule": "CCCc1nc2cc(CCC(=O)Nc3ccc(Br)cc3F)ccc2[nH]1", "% Inhibition": -2, "Z score": 0.32}, {"molecule": "CCc1nc(Cn2ccnc2[C@@H](C)CC)no1", "% Inhibition": -15, "Z score": 3.04}, {"molecule": "CCc1ccc(-c2[nH]nc3nc(-c4ccc(OC)cc4)cc(C(=O)NCCc4ccc(OC)c(OC)c4)c23)cc1", "% Inhibition": -9, "Z score": 0.79}, {"molecule": "Cc1ccc(C)c(CC(=O)N2C[C@H]3CC[C@@H](C2)[C@@H]3N)c1", "% Inhibition": -3, "Z score": 0.47}, {"molecule": "O=C(NCc1ccc(F)cc1F)[C@H]1CCCN(c2cn[nH]c(=O)c2)C1", "% Inhibition": 36, "Z score": -4.08}, {"molecule": "Cc1nnc(CCOC(=O)[C@H]2CCCN2C(=O)OC(C)(C)C)o1", "% Inhibition": 0, "Z score": -0.02}, {"molecule": "O=C(c1cncc(-c2cccc3ccnn23)n1)N1CCOCC1", "% Inhibition": -11, "Z score": 1.55}, {"molecule": "C[C@]1(C#N)CCCN(C(=O)c2n[nH]c(N)c2Cl)C1", "% Inhibition": 1, "Z score": -0.14}, {"molecule": "CC(NC(=O)C1CC1c1ccccc1Br)c1cccnc1", "note": "(stereo unspecified)", "% Inhibition": -5, "Z score": 0.61}, {"molecule": "Cc1cc(Br)ccc1CN1CCC[C@H](c2nncn2C)C1", "% Inhibition": -2, "Z score": 0.3}, {"molecule": "Cn1cc(C(=O)N(Cc2ccco2)C2CCOCC2)nn1", "% Inhibition": -8, "Z score": 1.27}, {"molecule": "C[C@@H](COCC(F)(F)F)Nc1ncnc(N)c1Cl", "% Inhibition": -5, "Z score": 1.03}, {"molecule": "c1ccc(-n2nnnc2N2CC[C@]3(CCOC3)C2)cc1", "% Inhibition": 1, "Z score": -0.08}, {"molecule": "Cc1csc([C@@H]2CN(c3ncnc(N)c3Cl)CCO2)n1", "% Inhibition": -6, "Z score": 1.16}, {"molecule": "CC(C)C[C@H](C)NC(=O)c1nn(-c2ccccn2)c2nccc(-c3cccs3)c12", "% Inhibition": -1, "Z score": 0.13}, {"molecule": "Cc1cc(CNC(=O)c2[nH]ccc2C2CC2)n(C)n1", "% Inhibition": -5, "Z score": 0.62}]}]}
